Source: paper PMC10668032
This is one part of the list. At the low end of the ranking, values are background and their order means little.

Target: SIX1 homeodomain (reference allele) (UniProt Q15475)
Assay: universal protein binding microarray
Conditions: Universal all-10-mer PBM (8x60K, AMADID 030236), 300 nM GST-tagged protein, Alexa Fluor 488 anti-GST; buffer, salt, pH and temperature not stated; high values mean tight binding; most listed sequences are background and not binding sites; double strand, one strand shown

Sequence	binding signal [E-score]
TAACTACA	-0.00081
CACCGACG	-0.0228
GAACACTC	-0.204
CCCTTACG	-0.091
CACACATC	-0.0882
CATAACCA	-0.0237
ATTGGAAC	0.00959
GAACTATC	0.23
GAGACCAC	0.00277
AGGTACAA	-0.227
CAAGATTG	-0.034
ATCGAATA	0.182
AGGCGTCC	-0.194
ATTAGACA	0.0637
CAGGCCTA	-0.00784
CCGTGAGA	0.149
CTGTAGCC	-0.124
ATGAACTA	-0.041
CGCATGGA	0.124
AAAACTCC	-0.0835
TGGGGCAA	-0.205
CAAACGGC	-0.179
GTATGGGA	0.05
TACGTACA	0.13
CAGTAGAA	-0.0297

Sequence	binding signal [E-score]
AATCATAA	-0.0401
TGCCGAAA	-0.202
AAGGAGGT	-0.11
AAAAGCCT	-0.267
CGTTCGGA	-0.0504
AACAATGT	-0.173
CCGCCTAC	-0.0588
ACGAAACA	-0.039
TAGACGAA	-0.225
TACGAAAA	-0.0244
AGTCTGAT	0.19
ATGCTGCG	-0.144
CGGATCAC	0.463
CCAGGGGC	-0.202
AGGTATAC	0.4
GCTTGTCC	-0.163
GACAAAGA	-0.0648
ACCAGTGG	-0.0189
CGCTGCCG	-0.138
CGTTGTAG	-0.0454
ACTCTTCA	-0.131
ATAATCAA	-0.113
GGAGGGAA	-0.122
ATGGCCTA	-0.0831
CTATAGGC	-0.108

Sequence	binding signal [E-score]
CAAGTCAC	-0.15
ATCAAGAC	0.0793
CAGACGAA	-0.097
GAACAACA	-0.17
GCCGGAGA	-0.0098
ACTCGTTA	-0.0672
AGCCAACT	-0.229
TGCTATAA	-0.183
AAGCTGCT	-0.293
CCGTAACC	-0.0538
CCGCAAAC	0.0548
GCATTTCA	-0.162
AACTTGAC	-0.104
ACCCTCTG	-0.00815
CAGGCTCC	-0.0533
CACACCGA	0.116
CGACGATC	0.215
CGGGGATC	0.396
GCAAAGAA	-0.14
AAATAGTC	0.0496
CAAAACCG	-0.163
CCATCATA	0.122
AATTTAAC	-0.156
CCTTGTAA	0.0139
TGTGCACA	-0.212

Sequence	binding signal [E-score]
AAGATGTA	0.0744
GTAGGATA	0.355
GCCCGGTA	0.0524
ACTCGCCA	-0.12
ATTCCCCC	-0.00785
AGTGCTAC	-0.0437
CAGGCATC	0.116
CTAGTGAG	0.0595
ATGGGATA	0.36
CTACAGAG	-0.00194
TGACCCCA	0.198
GAGATATA	0.359
ATCGAGGG	0.163
AATACTGC	0.162
CCGCGTAG	0.0672
CAAGTTAG	-0.0412
AAGTTTCG	-0.279
CCTTACAG	-0.118
CATGTTAG	-0.132
ACTGCCAG	-0.128
ATGAGGCA	-0.246
AACCAGGG	-0.00766
TAGACCCA	-0.0788
CGAGTGTC	-0.00468
ATACGGGA	0.367

Sequence	binding signal [E-score]
AGTTCGGA	-0.136
AACGCCCC	-0.0812
TCCAATCA	-0.23
AGACAAGC	-0.17
AAGTGACG	-0.149
AGGCGCCT	-0.0587
AACTTTTG	-0.294
AGACTAAG	-0.0785
AGGTTCAT	-0.0209
GTATAGTA	0.285
GCTAGCGA	-0.00957
GTAGAGAC	-0.241
CACGATTC	-0.0498
TTTACAAA	-0.175
ACCCGGTA	0.244
ACAGTCTC	-0.141
AGTGGATC	0.359
GGGATATA	0.433
TCGCAACA	-0.168
AGTTCTTC	-0.111
ATTTATTG	-0.177
CTGCGGAA	-0.161
CACAGGGA	0.00358
ATCTCGTA	0.232
ACATGCGC	-0.21

Sequence	binding signal [E-score]
GTTATTCA	-0.0757
CAAAACAA	-0.362
ATTAAGAG	0.0972
AAGCAAAG	-0.0886
GGGTCCCA	-0.197
AGACGTTG	-0.138
TGCAGGCA	-0.108
TAACGTGA	-0.000625
CAAAACAG	-0.0236
GATTCCCA	-0.0427
AACGTCCG	-0.17
GATGTTGC	-0.0769
GGGAGTTA	-0.0269
AGGCGCTG	-0.2
GATAGCTA	0.207
AGGTAGTG	0.1
AGACAATG	-0.172
AGGCCCGC	-0.283
CCAAGTCC	-0.193
ACTGACAG	-0.159
TAACAAAA	-0.273
GATGATAC	0.484
AAGATGCT	-0.123
ACCGAACT	-0.0891
CCGCCTCC	-0.147

Sequence	binding signal [E-score]
AGTTTTTG	-0.0896
CATGCCGG	0.0882
CATAAACC	0.19
CGATATGA	0.311
ACCAGTGC	0.0391
AAGGAAGG	-0.144
ATTCTTGA	0.0269
CATCTATA	0.251
GATGCAAC	-0.0128
CCAGACAG	-0.181
GAGAGCCC	-0.0896
CACATAGC	-0.127
AACAAGTC	-0.153
AGATCGTG	0.204
ATCCGAGA	0.328
GCCAGCCC	-0.199
ACCGAAGG	-0.0232
ACGCCACA	0.0585
ACCTATCC	0.262
ATTCTATA	0.0884
CACGTTAC	-0.0593
CAACATAG	0.128
CTCTCGCC	-0.293
CTGTACAC	0.0429
TGTTCTAA	-0.139

Sequence	binding signal [E-score]
GATGTACC	0.0177
GACGTTAC	-0.335
CCAGAGAG	-0.0597
AACATCCT	-0.102
TAGCGACA	-0.0229
CCGCGAAC	0.0706
ATTTAACG	-0.296
CGTCTTAG	-0.143
CACTCTGA	-0.107
TAGTTACA	-0.0453
CACTAACA	-0.0258
CCCGGCAC	-0.291
CCACCGGC	-0.0662
CACGAGAA	0.0576
TAAGACTA	0.0664
ATGTAATC	0.196
GGGACCAA	-0.356
AGCGCACT	-0.221
GACCGATC	0.246
CTTTTCTA	-0.174
GCACTCAA	-0.0574
AGGGGACT	-0.137
CATTCTTA	0.122
AGGTGTAC	0.182
AGGTCTGA	-0.0938

Sequence	binding signal [E-score]
ACCAGTTC	-0.0617
CGTGCACA	-0.225
GCCAAGCC	-0.144
AACATCGG	-0.0255
ATCTCCTA	0.159
CATTCGAC	-0.0437
ACGGATTA	0.301
ACCTCAGT	-0.00928
ACGACGGC	-0.151
GGCACCAC	-0.178
GTCTGAAA	-0.152
CCGGGTGA	0.201
AAAACTCT	-0.346
TCTTTTAA	-0.129
CACCACAG	0.113
ACATGTTC	-0.194
GACCGTAC	-0.205
AGACGGCC	-0.041
CTAGTGAC	-0.15
ATGGCAGG	-0.153
AAGGCGAT	0.135
AGCGGGAC	-0.289
AATCCAAT	0.023
GCAATAAA	-0.138
CGCCCTAG	0.00937

Sequence	binding signal [E-score]
ACTCTCCT	-0.00755
ACCACATC	-0.0285
AAACCCGG	0.163
CTGTCAAA	-0.236
TATTTAGA	0.131
ATAGAATC	-0.00212
ATGGCGAA	-0.173
ATGGACAA	-0.144
ACACGTCT	0.0928
CGACCTAC	-0.122
GAGATGAC	-0.016
AGAGAATA	-0.0147
GCACCCTA	0.086
CCACTACG	-0.135
ATTCGTCA	-0.0295
AAAGACCC	-0.0854
GATGCGCC	-0.0391
CCTAGTCA	-0.229
ATCTTTTG	0.0815
ACCTGACT	-0.0751
AAATGCAT	-0.126
GTCTCGTA	0.172
CTCCTTGA	-0.0249
CGACTGCA	-0.194
GAACTAGA	0.0845

Sequence	binding signal [E-score]
CCCAGCTA	-0.021
ATGTAGAG	-0.027
ATGTCATG	-0.0473
GCACATCC	-0.182
CGTGGTAC	0.0106
AGTAAAAA	-0.116
ACGTCATC	0.00519
CACAAATA	-0.0694
GATATTTA	0.157
GGGATTAC	0.167
ATTTTATG	0.0323
CGACTCTA	-0.0463
AGTTACCG	-0.175
CTCTTTGC	-0.255
AAAGCCGA	-0.202
CGCAGACG	-0.0639
CTGTAAGC	-0.141
CTATTTTA	-0.00639
ATTAGGCA	-0.0243
GAGCGCCC	-0.211
TATACACA	0.263
GCTAGTAA	-0.0483
CTTTCAAC	-0.247
AAATCATC	-0.0771
ACGGGGAA	-0.0663

Sequence	binding signal [E-score]
TACTAGGA	0.0517
CATCATCC	-0.028
CGGTATGA	0.225
AAATGAAT	-0.116
CTTGCCTC	-0.124
ACTTCTGC	-0.128
ACCGATCC	0.382
TGTTACAA	-0.01
TATCTGAA	0.153
TCGGATAA	0.336
TAGTTCAA	-0.375
GCTCTGCC	-0.238
AGCGTGAG	-0.189
GTCATTAA	0.0474
GCCTGCTA	0.0147
AACCGGTT	0.0568
TGAATGCA	-0.118
GTTCTTTA	-0.245
CAGCTAGG	0.035
CACTGTGC	-0.1
ACGGTGGA	0.0277
AAGTGCCC	-0.319
AGGCCTAA	-0.0905
GCGTCATA	0.0247
GTACAGGA	-0.104

Sequence	binding signal [E-score]
CTATTGCC	-0.0372
AGCAAGTA	-0.138
GCGTGAAA	-0.0628
TAGTATAA	0.199
GGCGCGGA	0.129
GCTTATGA	0.0935
GCATCACA	0.0924
CGTCTGAG	0.0443
CGAGGACG	-0.0709
TCGTCTCA	0.22
AACTTAAA	-0.131
CGCCTACA	-0.196
ACGTAAAT	-0.153
AGAATGTG	-0.262
AGGATACA	0.337
AAACTAAT	-0.0246
ATTGGGTC	-0.159
CGATTATC	0.181
AAGGTCGA	-0.197
GCGTTGAC	-0.25
AGCGCCAC	-0.185
CAGTCGGC	-0.118
CCGGGAGC	-0.107
TACACGCA	0.0534
AACCGCTC	-0.209

Sequence	binding signal [E-score]
GAAAAGGC	-0.18
CACGATAA	0.0161
CACTGAAC	-0.152
CCATCTTA	-0.0205
AAAATCAC	-0.177
CCGGCATA	0.0711
CGTGTCAG	0.202
AATTCTGT	-0.201
CCCAGCTC	0.128
CCGCTTCG	-0.159
TCTCGCAA	0.0827
TGTTGCAA	-0.16
TAATCATA	0.134
GATTGGCC	-0.183
ATGGGGGA	0.11
CGGGCCGC	0.0334
GGCGGGTA	0.228
GTGGGAAC	-0.25
ATACGCGG	0.182
